# Data: patent publication US9763922B2 (priority 2014, dated 2017)
# Test system: MYC
# Experiment: cells
# Details: Homo sapiens, MV4-11, 4 h, read-out: Myc IC50 (μM)
row,SMILES,IC50
1,"CNC(=O)N1CCc2c(c(N3CCCc4cc(-c5ccn(C)n5)c(C(F)F)cc43)nn2C2CCOCC2)C1 [Example 319, 3-[7-(difluoromethyl)-6-(1-methylpyrazol-3-yl)-3,4-dihydro-2H-quinolin-1-yl]-N-methyl-1-tetrahydropyran-4-yl-6,7-dihydro-4H-pyrazolo[4,3-c]pyridine-5-carboxamide]",0.008 µM
2,"CC(=O)N1CCc2c(c(N3C[C@@H](C)c4cc(-c5cnn(C)c5)ccc43)nn2[C@H]2CCOC2)C1 [Example 197, (S,S)-1-[3-[3-methyl-5-(1-methylpyrazol-4-yl)indolin-1-yl]-1-tetrahydrofuran-3-yl-6,7-dihydro-4H-pyrazolo[4,3-c]pyridin-5-yl]ethanone]",1.57 µM
3,"CC(=O)N1CCc2c(c(N3CCN(C)c4cc(-c5cnn(C)c5)c(C#N)cc43)nn2C2CCOCC2)C1 [Example 263, 4-(5-acetyl-1-tetrahydropyran-4-yl-6,7-dihydro-4H-pyrazolo[4,3-c]pyridin-3-yl)-1-methyl-7-(1-methylpyrazol-4-yl)-2,3-dihydroquinoxaline-6-carbonitrile]",0.015 µM
4,"CC(=O)N1CCc2c(c(N3CCc4ccc(C(=O)O)cc43)nn2C)C1 [Example 211, 1-(5-acetyl-1-methyl-4,5,6,7-tetrahydro-1H-pyrazolo[4,3-c]pyridin-3-yl)indoline-6-carboxylic Acid]",> 20 µM
5,"CC(=O)N1CCc2c(c(N3C[C@H](C)Cc4cc(-c5cnn(C)c5)c(C(F)F)cc43)nn2C2CCOCC2)C1 [Example 241, (R)-1-[3-[7-(difluoromethyl)-3-methyl-6-(1-methylpyrazol-4-yl)-3,4-dihydro-2H-quinolin-1-yl]-1-tetrahydropyran-4-yl-6,7-dihydro-4H-pyrazolo[4,3-c]pyridin-5-yl]ethanone]",0.02 µM
6,"CNC(=O)N1CCc2c(c(N3CCCc4cc(-c5cn(C)nc5C(F)(F)F)c(C(F)F)cc43)nn2C2CCS(=O)(=O)CC2)C1 [Example 326, 3-[7-(difluoromethyl)-6-[1-methyl-3-(trifluoromethyl)pyrazol-4-yl]-3,4-dihydro-2H-quinolin-1-yl]-1-(1,1-dioxothian-4-yl)-N-methyl-6,7-dihydro-4H-pyrazolo[4,3-c]pyridine-5-carboxamide]",0.078 µM
7,"CC(=O)N1CCc2c(c(Nc3ccc(-c4cncc(S(C)(=O)=O)c4)cc3)nn2C)C1 [Example 158, 3-[7-cyano-6-(1-methylpyrazol-4-yl)-3,4-dihydro-2H-quinolin-1-yl]-N-methyl-1-[(3S)-tetrahydrofuran-3-yl]-6,7-dihydro-4H-pyrazolo[4,3-c]pyridine-5-carboxamide]",1.86 µM
8,"CC(=O)N1CCc2c(c(Nc3ccc(-c4cccc(C(C)(C)O)c4)cc3)nn2C)C1 [Example 107, 1-[3-[4-methyl-6-(1-methylpyrazol-4-yl)-3,4-dihydro-2H-quinolin-1-yl]-1-(oxetan-3-yl)-6,7-dihydro-4H-pyrazolo[4,3-c]pyridin-5-yl]ethanone]",1.13 µM
9,"CC(=O)N1CCc2c(c(N3CCCc4cc(-c5cnn(C)c5)c(C(F)F)cc43)nn2C2CCN(C)CC2)C1 [Example 347, 1-[3-[7-(difluoromethyl)-6-(1-methylpyrazol-4-yl)-3,4-dihydro-2H-quinolin-1-yl]-1-(1-methyl-4-piperidyl)-6,7-dihydro-4H-pyrazolo[4,3-c]pyridin-5-yl]ethanone]",> 1 µM
10,"CCC1Cc2cc(-c3cnn(C)c3)ccc2N(c2nn([C@H]3CCOC3)c3c2CN(C(C)=O)CC3)C1 (stereo in doubt) [Example 99, 1-[3-[3-ethyl-6-(1-methylpyrazol-4-yl)-3,4-dihydro-2H-quinolin-1-yl]-1-tetrahydrofuran-3-yl-6,7-dihydro-4H-pyrazolo[4,3-c]pyridin-5-yl]ethanone]",5.65 µM
11,"CNC(=O)N1CCc2c(c(N3CC[C@@H](C)c4cc(-c5cnn(C)c5)c(C(F)F)cc43)nn2C2CCOCC2)C1 (single isomer, unassigned) [Example 358]",0.01 µM
